Reference: PubChem BioAssay AID651820 (National Center for Advancing Translational Sciences (NCATS), 2012)
The campaign covered roughly 340,000 compounds. About 12,000 (3.5%) were called active. This list was built around the results that the source calls inconclusive (neither active nor inactive); the mix of calls is not that of the screen. Calls follow the shape of the dose curve; as a rule, active = well fitted inhibition curve with a large enough effect; inconclusive = small, poorly fitted or top-dose-only effect, or another doubt; inactive = no such curve, though single readings can be large or run the other way. Potencies of inconclusive entries are left out as doubtful fits.
% is scaled to controls: 0 for no effect and ±100 for the full control effect; potency is read from the fitted curve at half-maximal effect; tags tell the direction and shape of the fitted curve.

Assay: qHTS Assay for Inhibitors of Hepatitis C Virus (HCV)
Conditions: Huh7.5.1 HCVcc-Cre (HCVcc is cell-culture hepatitis C virus) infection, luciferase reporter, 44 h; activity change, negative = inhibition: at 41.8 µM (top of the series) unless noted
Procedure, shortened: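 Seed cells (1,000/well) for 4 h; treat with compound and infect with HCVcc-Cre, moi about 0.5. Incubate 44 h, then detect luciferase activity.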
With O=C(Nc1ccccc1)Nc1cccc(C(F)(F)F)c1 the Potency was inconclusive [inhibitor, partial curve, poor fit].
In the case of O=C(Nc1ccc2c(c1)CCCN2C(=O)c1ccco1)c1cc([N+](=O)[O-])ccc1Cl, the Potency is reported as inconclusive [inhibitor, full curve, poor fit].
For CCS(=O)(=O)c1ccc2oc(SCC(=O)NC3CCCC(C)C3C)nc2c1 (stereo not drawn), the Potency was “inactive”.
For COc1ccc(N=c2scc(-c3ccc(S(=O)(=O)N4CCOCC4)cc3)n2CCCO)cc1, the Potency was inconclusive [inhibitor, single point].
In the case of Cc1ccc(-c2noc(CCCC(=O)NC3CCCCC3)n2)cc1, the Potency is reported as inconclusive [inhibitor, single point].
With COc1ccc(C)cc1NC(=O)c1ccc(CN2CCN(c3ccccc3)CC2)cc1 the Potency was inconclusive [inhibitor, single point].
In the case of O=C(Cc1cccc(NC(=O)C2CCN(C(=O)C3CCCCC3)CC2)c1)Nc1cccc(C(=O)N2CCCC2)c1, the Potency is reported as “inactive”.
In the case of COC(=O)c1c(C)[nH]c(C(=O)OCc2ccc(F)cc2)c1C, the Potency is reported as inconclusive [inhibitor, partial curve, poor fit].
With CN1CCN(CCOc2cccc(Cl)c2)CC1 the Potency was “inactive”.
For CC12CCC3C(CC=C4CC(O)CCC43C)C1C/C(=C\c1cccc(F)c1)C2=O (stereo not drawn), the Potency was “inactive”.
With O=C(Nc1cccc(-c2nc3cc(Cl)ccc3o2)c1)C1CCCO1 (stereo not drawn) the Potency was inconclusive [inhibitor, partial curve].
In the case of NNC(=O)c1ccc(OCC2CC(c3ccc(Cl)cc3)=NO2)cc1 (stereo not drawn), the Potency is reported as inconclusive [inhibitor, partial curve].
With O=C(N/N=C/c1cc(Br)c(Br)o1)c1ccc2c(c1)OCCO2 the Potency was inconclusive [inhibitor, single point].
In the case of CCC(=O)c1ccc(OCC(=O)N(Cc2nnc(-c3ccccc3Cl)o2)C2CC2)cc1, the Potency is reported as inconclusive [inhibitor, single point].
With c1ccc(C2=Nn3c(nnc3-c3cc(-c4ccccc4)n[nH]3)SC2)cc1 the Potency was inconclusive [inhibitor, single point].
With CC(=O)c1ccc(N2C(=O)C3C4C=CC(CC4)C3C2=O)cc1 (stereo not drawn) the Potency was “inactive”.
In the case of CN(c1ccc(C(=O)Nc2ccc(Cl)cn2)cc1)S(=O)(=O)c1ccccc1, the Potency is reported as active: 11.2 µM.
In the case of O=C(CC1C(=O)NCCN1CC1CCCCC1)NCCc1ccc(F)cc1 (stereo not drawn), the Potency is reported as inconclusive [inhibitor, single point].
For N#Cc1ccccc1S(=O)(=O)N1CCN(CC(O)c2ccccc2)CC1 (stereo not drawn), the Potency was “inactive”.
With COC(=O)c1ccc(N2CCN(c3ccccc3)CC2)c(N)c1 the Potency was “inactive”.
With CC1CC1c1ccc(/C=C(\C#N)C(=O)Nc2cc(Cl)ccc2Cl)o1 (stereo not drawn) the Potency was inconclusive [inhibitor, full curve, poor fit].
With O=C(COc1ccc(Cl)cc1Cl)NN1C(=O)/C(=C\c2ccc(Cl)cc2)SC1=S the Potency was inconclusive [inhibitor, single point].
In the case of CCOc1c(Br)cc(CNc2ccc3c(c2)OCCO3)cc1OC, the Potency is reported as inconclusive [inhibitor, full curve].
With O=[N+]([O-])c1ccc(O)c(/C=N/n2cnc3ccccc32)c1 the Potency was inconclusive [inhibitor, single point].
With Cn1c(NCc2ccccc2)nc2c1c(=O)n(Cc1ccccc1)c(=O)n2C the Potency was “inactive”.
For O=C(NCc1ccco1)C1CCN(C(=O)c2cc3sccc3n2Cc2ccc(Cl)cc2)CC1, the Potency was inconclusive [inhibitor, single point].
For COc1ccc(S(=O)(=O)Nc2ccc3oc4ncccc4c(=O)c3c2)cc1OC, the Potency was inconclusive [inhibitor, single point].
With O=C(Cn1c2ccc(F)cc2c2nc3n(c(=O)c21)CCS3)Nc1ccc(Cl)cc1F the Potency was inconclusive [inhibitor, partial curve].
In the case of Cn1c(=O)cc(SCC(=O)Nc2ccc3c(c2)OCO3)c2ccccc21, the Potency is reported as inconclusive [inhibitor, partial curve].
For COc1ccccc1CNS(=O)(=O)c1ccc(N2CCCC2)cc1Br, the Potency was active: 11.2 µM.
In the case of CCc1cccc(NC(=O)COC(=O)c2cc([N+](=O)[O-])ccc2N2CCOCC2)c1, the Potency is reported as active: 10 µM.
With COc1cnc(SCc2c(Cl)cccc2Cl)nc1Cl the Potency was inconclusive [inhibitor, single point].
In the case of O=C(NNC(=O)c1cccs1)c1ccc(F)cc1, the Potency is reported as “inactive”.
With CCCNC(=O)N1[C@H]2CC[C@@H]1C(C(=O)OC)=C(c1ccc(OC(F)(F)F)cc1)C2 the Potency was inconclusive [inhibitor, single point].
For CC(=O)Nc1ccc(S(=O)(=O)n2cnc3cc(C)c(C)cc32)cc1, the Potency was inconclusive [inhibitor, single point].
With O=C(CN(C(=O)CCC(=O)Nc1nccs1)c1cccc(F)c1)NCCc1ccccc1 the Potency was inconclusive [inhibitor, partial curve].
With Cc1ccc2sc(NNC(=O)c3cc(-c4cccs4)nc4ccccc34)nc2c1C the activity change, negative = inhibition was inactive: -3% [at 8.37 µM].
With Cc1ccc(C2CC(=O)NC(SCC(=O)OCc3ccccc3)=C2C#N)o1 (stereo not drawn) the Potency was inconclusive [inhibitor, partial curve].
With CCOC(=O)/C=C1\SCC(=O)N1CC(=O)Nc1cccc(F)c1 the Potency was inconclusive [inhibitor, partial curve, poor fit].
For O=C(Cn1cc([N+](=O)[O-])cn1)Nc1ccn(Cc2c(F)c(F)cc(F)c2F)n1, the Potency was inconclusive [inhibitor, full curve, poor fit].
With Cc1ccc2c(c1)/C(=C/c1ccccc1F)C(=O)N2 the Potency was inconclusive [inhibitor, partial curve].
With CCOc1ccc(C(=O)OCC(=O)N2CCOCC2)cc1OCC the Potency was “inactive”.
For COc1ccc(-c2cc(C(=O)NN3CCOCC3)c3ccccc3n2)cc1OC, the Potency was inconclusive [inhibitor, partial curve].
